Some of these densities may be calculated back from excess volumes.
Test: xn = mol fraction of the nth substance listed
Conditions: 101.3 kPa

SMILES: CCCCCCCCn1cc[n+](C)c1.F[B-](F)(F)F + Nc1ccccc1
- mass density (293.15 K, x1 = 0.0996): 1047.4 kg/m3
- mass density (293.15 K, x1 = 0.1904): 1064.5 kg/m3
- mass density (293.15 K, x1 = 0.2853): 1077 kg/m3
- mass density (293.15 K, x1 = 0.3789): 1085.1 kg/m3
- mass density (293.15 K, x1 = 0.4955): 1091.6 kg/m3
- mass density (293.15 K, x1 = 0.5783): 1095.2 kg/m3
- mass density (293.15 K, x1 = 0.6966): 1099.5 kg/m3
- mass density (293.15 K, x1 = 0.7938): 1102.7 kg/m3
- mass density (298.15 K, x1 = 0.2853): 1073.7 kg/m3
- mass density (298.15 K, x1 = 0.3789): 1081.7 kg/m3
- mass density (298.15 K, x1 = 0.4955): 1088.3 kg/m3
- mass density (298.15 K, x1 = 0.5783): 1092 kg/m3
- mass density (298.15 K, x1 = 0.6966): 1096.2 kg/m3
- mass density (298.15 K, x1 = 0.8958): 1102.2 kg/m3
- mass density (303.15 K, x1 = 0.2853): 1070.2 kg/m3
- mass density (303.15 K, x1 = 0.3789): 1078.4 kg/m3
- mass density (303.15 K, x1 = 0.4955): 1085 kg/m3
- mass density (303.15 K, x1 = 0.5783): 1088.7 kg/m3
- mass density (303.15 K, x1 = 0.6966): 1092.9 kg/m3
- mass density (303.15 K, x1 = 0.7938): 1096 kg/m3
- mass density (308.15 K, x1 = 0.0996): 1036.4 kg/m3
- mass density (308.15 K, x1 = 0.2853): 1066.7 kg/m3
- mass density (308.15 K, x1 = 0.3789): 1075 kg/m3
- mass density (308.15 K, x1 = 0.4955): 1081.8 kg/m3
- mass density (308.15 K, x1 = 0.6966): 1089.7 kg/m3
- mass density (308.15 K, x1 = 0.7938): 1092.7 kg/m3
- mass density (308.15 K, x1 = 0.8958): 1095.6 kg/m3
- mass density (313.15 K, x1 = 0.1904): 1050.6 kg/m3
- mass density (313.15 K, x1 = 0.2853): 1063.2 kg/m3
- mass density (313.15 K, x1 = 0.4955): 1078.6 kg/m3
- mass density (313.15 K, x1 = 0.5783): 1082.3 kg/m3
- mass density (313.15 K, x1 = 0.6966): 1086.5 kg/m3
- mass density (313.15 K, x1 = 0.7938): 1089.5 kg/m3
- mass density (313.15 K, x1 = 0.8958): 1092.2 kg/m3
- mass density (318.15 K, x1 = 0.0996): 1028.6 kg/m3
- mass density (318.15 K, x1 = 0.1904): 1046.7 kg/m3
- mass density (318.15 K, x1 = 0.2853): 1059.7 kg/m3
- mass density (318.15 K, x1 = 0.4955): 1075.1 kg/m3
- mass density (318.15 K, x1 = 0.5783): 1078.8 kg/m3
- mass density (318.15 K, x1 = 0.6966): 1082.9 kg/m3
- mass density (318.15 K, x1 = 0.7938): 1086 kg/m3
- mass density (318.15 K, x1 = 0.8958): 1088.8 kg/m3
- mass density (323.15 K, x1 = 0.2853): 1056 kg/m3
- mass density (323.15 K, x1 = 0.3789): 1064.6 kg/m3
- mass density (323.15 K, x1 = 0.4955): 1071.5 kg/m3
- mass density (323.15 K, x1 = 0.5783): 1075.3 kg/m3
- mass density (323.15 K, x1 = 0.6966): 1079.4 kg/m3
- mass density (323.15 K, x1 = 0.8958): 1085.2 kg/m3

SMILES: Nc1ccccc1 + CCCC[n+]1ccn(C)c1.F[B-](F)(F)F
- mass density (293.15 K, x2 = 0.0925): 1059.3 kg/m3
- mass density (293.15 K, x2 = 0.2995): 1118.1 kg/m3
- mass density (293.15 K, x2 = 0.4002): 1137.2 kg/m3
- mass density (293.15 K, x2 = 0.7904): 1184.9 kg/m3
- mass density (293.15 K, x2 = 0.9191): 1196.4 kg/m3
- mass density (298.15 K, x2 = 0): 1017.4 kg/m3
- mass density (298.15 K, x2 = 0.2022): 1090.6 kg/m3
- mass density (298.15 K, x2 = 0.2995): 1114.8 kg/m3
- mass density (298.15 K, x2 = 0.4002): 1134 kg/m3
- mass density (298.15 K, x2 = 0.5953): 1161.3 kg/m3
- mass density (298.15 K, x2 = 0.6935): 1172.5 kg/m3
- mass density (298.15 K, x2 = 0.7904): 1182.1 kg/m3
- mass density (298.15 K, x2 = 0.9191): 1193.8 kg/m3
- mass density (303.15 K, x2 = 0.0925): 1051.9 kg/m3
- mass density (303.15 K, x2 = 0.2022): 1087.1 kg/m3
- mass density (303.15 K, x2 = 0.2995): 1111.2 kg/m3
- mass density (303.15 K, x2 = 0.4002): 1130.5 kg/m3
- mass density (303.15 K, x2 = 0.4982): 1145.5 kg/m3
- mass density (303.15 K, x2 = 0.5953): 1158 kg/m3
- mass density (303.15 K, x2 = 0.7904): 1178.8 kg/m3
- mass density (303.15 K, x2 = 0.9191): 1190.5 kg/m3
- mass density (308.15 K, x2 = 0): 1008.7 kg/m3
- mass density (308.15 K, x2 = 0.0925): 1048.1 kg/m3
- mass density (308.15 K, x2 = 0.2022): 1083.3 kg/m3
- mass density (308.15 K, x2 = 0.4002): 1126.6 kg/m3
- mass density (308.15 K, x2 = 0.5953): 1154.2 kg/m3
- mass density (308.15 K, x2 = 0.6935): 1165.4 kg/m3
- mass density (308.15 K, x2 = 0.7904): 1175.1 kg/m3
- mass density (308.15 K, x2 = 0.9191): 1186.8 kg/m3
- mass density (313.15 K, x2 = 0.0925): 1044.1 kg/m3
- mass density (313.15 K, x2 = 0.2022): 1079.4 kg/m3
- mass density (313.15 K, x2 = 0.2995): 1103.3 kg/m3
- mass density (313.15 K, x2 = 0.4982): 1137.7 kg/m3
- mass density (313.15 K, x2 = 0.9191): 1182.8 kg/m3
- mass density (318.15 K, x2 = 0): 1000 kg/m3
- mass density (318.15 K, x2 = 0.0925): 1040.3 kg/m3
- mass density (318.15 K, x2 = 0.2022): 1075.7 kg/m3
- mass density (318.15 K, x2 = 0.2995): 1099.9 kg/m3
- mass density (318.15 K, x2 = 0.4002): 1119 kg/m3
- mass density (318.15 K, x2 = 0.5953): 1147 kg/m3
- mass density (318.15 K, x2 = 0.7904): 1168.1 kg/m3
- mass density (318.15 K, x2 = 0.9191): 1179.6 kg/m3
- mass density (323.15 K, x2 = 0): 995.6 kg/m3
- mass density (323.15 K, x2 = 0.0925): 1036.7 kg/m3
- mass density (323.15 K, x2 = 0.2022): 1072.2 kg/m3
- mass density (323.15 K, x2 = 0.4982): 1131.3 kg/m3
- mass density (323.15 K, x2 = 0.5953): 1143.6 kg/m3
- mass density (323.15 K, x2 = 0.6935): 1154.8 kg/m3
- mass density (323.15 K, x2 = 0.7904): 1164.8 kg/m3
- mass density (323.15 K, x2 = 0.9191): 1176.5 kg/m3

SMILES: Nc1ccccc1 + CCCCCC[n+]1ccn(C)c1.F[B-](F)(F)F
- mass density (293.15 K, x2 = 0): 1021.7 kg/m3
- mass density (298.15 K, x2 = 0): 1017.4 kg/m3
- mass density (303.15 K, x2 = 0): 1013 kg/m3
- mass density (308.15 K, x2 = 0): 1008.7 kg/m3

SMILES: Nc1ccccc1 + CCCCCCCCn1cc[n+](C)c1.F[B-](F)(F)F
- mass density (293.15 K, x2 = 0): 1021.7 kg/m3
- mass density (298.15 K, x2 = 0): 1017.4 kg/m3
- mass density (303.15 K, x2 = 0): 1013 kg/m3
- mass density (308.15 K, x2 = 0): 1008.7 kg/m3
- mass density (318.15 K, x2 = 0): 1000 kg/m3
- mass density (323.15 K, x2 = 0): 995.6 kg/m3

SMILES: CCCCCC[n+]1ccn(C)c1.F[B-](F)(F)F + Nc1ccccc1
- mass density (293.15 K, x1 = 0.0989): 1054.9 kg/m3
- mass density (293.15 K, x1 = 0.2896): 1095.3 kg/m3
- mass density (293.15 K, x1 = 0.3924): 1108.1 kg/m3
- mass density (293.15 K, x1 = 0.5062): 1119 kg/m3
- mass density (293.15 K, x1 = 0.6042): 1126.6 kg/m3
- mass density (293.15 K, x1 = 0.8962): 1143.5 kg/m3
- mass density (298.15 K, x1 = 0.0989): 1051 kg/m3
- mass density (298.15 K, x1 = 0.1792): 1071.3 kg/m3
- mass density (298.15 K, x1 = 0.2896): 1091.6 kg/m3
- mass density (298.15 K, x1 = 0.3924): 1104.7 kg/m3
- mass density (298.15 K, x1 = 0.6986): 1129.4 kg/m3
- mass density (298.15 K, x1 = 0.7974): 1135.1 kg/m3
- mass density (298.15 K, x1 = 0.8962): 1140 kg/m3
- mass density (303.15 K, x1 = 0.1792): 1067.6 kg/m3
- mass density (303.15 K, x1 = 0.2896): 1088 kg/m3
- mass density (303.15 K, x1 = 0.3924): 1101.3 kg/m3
- mass density (303.15 K, x1 = 0.5062): 1112.5 kg/m3
- mass density (303.15 K, x1 = 0.6042): 1120.1 kg/m3
- mass density (303.15 K, x1 = 0.7974): 1131.8 kg/m3
- mass density (303.15 K, x1 = 0.8962): 1136.6 kg/m3
- mass density (308.15 K, x1 = 0.0989): 1043.2 kg/m3
- mass density (308.15 K, x1 = 0.1792): 1063.9 kg/m3
- mass density (308.15 K, x1 = 0.2896): 1084 kg/m3
- mass density (308.15 K, x1 = 0.3924): 1097.6 kg/m3
- mass density (308.15 K, x1 = 0.5062): 1108.8 kg/m3
- mass density (308.15 K, x1 = 0.6042): 1116.5 kg/m3
- mass density (308.15 K, x1 = 0.6986): 1122.5 kg/m3
- mass density (308.15 K, x1 = 0.7974): 1128.1 kg/m3
- mass density (308.15 K, x1 = 0.8962): 1133 kg/m3
- mass density (313.15 K, x1 = 0.1792): 1060.2 kg/m3
- mass density (313.15 K, x1 = 0.2896): 1080.6 kg/m3
- mass density (313.15 K, x1 = 0.3924): 1094.3 kg/m3
- mass density (313.15 K, x1 = 0.5062): 1105.6 kg/m3
- mass density (313.15 K, x1 = 0.6042): 1113.6 kg/m3
- mass density (313.15 K, x1 = 0.6986): 1119.6 kg/m3
- mass density (313.15 K, x1 = 0.7974): 1125.2 kg/m3
- mass density (313.15 K, x1 = 0.8962): 1130 kg/m3
- mass density (318.15 K, x1 = 0.0989): 1035.7 kg/m3
- mass density (318.15 K, x1 = 0.1792): 1056.6 kg/m3
- mass density (318.15 K, x1 = 0.2896): 1077.1 kg/m3
- mass density (318.15 K, x1 = 0.3924): 1090.8 kg/m3
- mass density (318.15 K, x1 = 0.5062): 1102.3 kg/m3
- mass density (318.15 K, x1 = 0.7974): 1122.2 kg/m3
- mass density (318.15 K, x1 = 0.8962): 1127 kg/m3
- mass density (323.15 K, x1 = 0.0989): 1031.7 kg/m3
- mass density (323.15 K, x1 = 0.2896): 1073 kg/m3
- mass density (323.15 K, x1 = 0.5062): 1098.3 kg/m3
- mass density (323.15 K, x1 = 0.6042): 1106.5 kg/m3
- mass density (323.15 K, x1 = 0.6986): 1112.6 kg/m3
- mass density (323.15 K, x1 = 0.7974): 1118.3 kg/m3
- mass density (323.15 K, x1 = 0.8962): 1122.9 kg/m3
